The values below come from publication PMC3688683, “The N-Terminal Domains of Vps3 and Vps8 Are Critical for Localization and Function of the CORVET Tethering Complex on Endosomes” (PLoS ONE, 2013).

The chains behind the UniProt entries cited, without tags or fusion partners.
UniProt P12868: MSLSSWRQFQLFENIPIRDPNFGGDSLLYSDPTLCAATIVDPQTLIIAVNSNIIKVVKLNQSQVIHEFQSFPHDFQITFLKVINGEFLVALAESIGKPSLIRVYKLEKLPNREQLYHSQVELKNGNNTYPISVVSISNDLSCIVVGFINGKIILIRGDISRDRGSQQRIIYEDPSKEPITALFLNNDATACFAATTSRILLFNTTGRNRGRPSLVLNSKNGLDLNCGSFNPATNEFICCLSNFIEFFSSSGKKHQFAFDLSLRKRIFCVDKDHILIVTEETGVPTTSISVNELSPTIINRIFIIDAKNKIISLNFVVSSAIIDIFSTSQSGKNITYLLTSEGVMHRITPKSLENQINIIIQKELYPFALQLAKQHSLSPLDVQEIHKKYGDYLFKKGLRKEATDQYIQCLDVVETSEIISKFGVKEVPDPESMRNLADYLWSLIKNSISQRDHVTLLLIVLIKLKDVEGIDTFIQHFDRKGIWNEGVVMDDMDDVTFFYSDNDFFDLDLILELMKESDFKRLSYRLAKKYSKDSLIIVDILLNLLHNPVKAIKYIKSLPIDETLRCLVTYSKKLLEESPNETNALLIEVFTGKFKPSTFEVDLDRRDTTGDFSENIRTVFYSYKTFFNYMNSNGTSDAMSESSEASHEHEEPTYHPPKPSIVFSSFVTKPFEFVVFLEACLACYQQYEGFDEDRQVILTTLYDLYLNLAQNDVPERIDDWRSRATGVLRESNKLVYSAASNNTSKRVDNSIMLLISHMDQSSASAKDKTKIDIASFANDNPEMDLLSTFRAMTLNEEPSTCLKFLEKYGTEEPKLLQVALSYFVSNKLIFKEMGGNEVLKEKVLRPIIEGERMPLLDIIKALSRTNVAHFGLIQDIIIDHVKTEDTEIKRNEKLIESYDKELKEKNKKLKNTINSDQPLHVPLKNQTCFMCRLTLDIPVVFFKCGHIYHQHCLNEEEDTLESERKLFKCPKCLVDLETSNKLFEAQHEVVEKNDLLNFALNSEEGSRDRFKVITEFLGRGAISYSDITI

The target of this assay is T1, Vps3ΔC-TAP (N-terminal domain of Vps3, up to residue 426, C-terminal TAP tag) (yeast (genomic locus of BY4733 strains)) (UniProt P23643).
T1 sequence: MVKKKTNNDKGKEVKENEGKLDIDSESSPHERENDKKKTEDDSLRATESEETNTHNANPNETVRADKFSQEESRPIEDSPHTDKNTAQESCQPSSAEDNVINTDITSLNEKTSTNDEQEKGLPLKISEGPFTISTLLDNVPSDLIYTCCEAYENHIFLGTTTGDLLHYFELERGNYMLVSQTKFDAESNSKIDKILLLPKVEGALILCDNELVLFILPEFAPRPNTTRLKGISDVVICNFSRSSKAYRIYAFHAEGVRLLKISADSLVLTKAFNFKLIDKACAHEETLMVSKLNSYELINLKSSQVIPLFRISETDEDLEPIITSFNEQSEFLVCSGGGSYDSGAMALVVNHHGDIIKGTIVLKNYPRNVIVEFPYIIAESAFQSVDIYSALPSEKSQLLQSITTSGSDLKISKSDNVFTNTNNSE
In words: co-IP; small-scale TAP purification: C-terminally TAP-tagged Vps8 or Vps3 (full-length or truncated) captured from yeast lysate (50 mM HEPES/KOH pH 7.4, 300 mM NaCl, 0.15% NP-40, 2 mM MgCl2, 1 mM DTT) on IgG beads, 1.5 h at 4°C; eluted with glycine pH 2.5 or TEV protease; Western blot with anti-Cbp, anti-HA, anti-Vps11; also with overproduced Vps8ΔN and from vps21Δ and vps21Δ ypt52Δ ypt53Δ ypt7Δ strains. On the technique in general: In western blotting, separated proteins are transferred to a membrane and probed.

No constants are given. Whether binding was seen depends on the method and setting. In cells and extracts the contact can be indirect. Sequences can lack the tags named with a protein.

On to Vps11 (from UniProt P12868 1-1029), for which the binding result is reported as “no binding”.
